Experimental findings from PubChem BioAssay AID1240 (Sanford-Burnham Center for Chemical Genomics, 2008) are described below.

Screen size: about 50,000 compounds; about 800 (1.6%) showed an effect of 50% or more. This is one part of the list.

This experiment has as its target Bcl-2-like protein 10 (Homo sapiens) (UniProt Q9HD36). Briefly: Phenotype converters, Bcl-B/TR3 peptide binding displacement, primary biochemical FP (AID 1240).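 Note: 0% = Bcl-B with tracer peptide and DMSO and 100% = tracer peptide lacking Bcl-B.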 The settings on record: GST-Bcl-B / FITC-TR3 peptide fluorescence polarization; stronger effect = higher value; compound at 3.75 mg/L. (Polarisation of emitted light reports the rotation of a fluorescent probe.)
Chain of UniProt Q9HD36 (Q9HD36 whole entry, looked up): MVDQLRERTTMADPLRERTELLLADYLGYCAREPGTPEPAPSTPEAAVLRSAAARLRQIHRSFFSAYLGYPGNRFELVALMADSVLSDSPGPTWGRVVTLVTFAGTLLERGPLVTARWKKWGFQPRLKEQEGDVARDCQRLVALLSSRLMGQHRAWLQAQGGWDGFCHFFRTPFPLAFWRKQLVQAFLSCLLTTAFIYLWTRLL
Consider `N#C/C(=C\c1cc(I)cc(I)c1O)c1ccc([N+](=O)[O-])cc1`, for which the displacement was -8.1%.
For the compound `c1ccc(-c2cc(-c3ccccc3)nc(N3CCCCC3)n2)cc1`, the displacement was -6.8%.
With `COc1ccc(CNC(=O)c2ccc([N+](=O)[O-])cc2)cc1`, the displacement is 7.3%.
The result for `O=[N+]([O-])c1ccc(N2CCN(CCO)CC2)cc1NCc1ccc(Cl)cc1` reads -15.1%; that for `COc1cc2c(cc1NC(=O)c1ccc3ccccc3n1)oc1ccccc12`, 39.5%; that for `COC(=O)CC12CC3CC(C1)CC(c1ccc([N+](=O)[O-])cc1)(C3)C2`, -4.1%.
The result for `COC(=O)C1=C(C)NC2=C(C(=O)CC(c3ccc4c(c3)OCO4)C2)C1c1ccccc1F` (configuration not stated) reads 9.5%.
Turning to `O=[N+]([O-])c1ccccc1S(=O)(=O)Nc1ccc(S(=O)(=O)N2CCOCC2)cc1`, the displacement is 6.5%.
For the compound `O=C(NCCNc1ccc([N+](=O)[O-])cc1)c1cccc2c(Br)cccc12`, the displacement was -6.5%.
`COc1cccc(/C=C2\SC(=S)N(CCC(=O)Nc3cccc(OC)c3)C2=O)c1`: the displacement is 14.9%.
For the compound `CCOc1ccc(NC(=O)CN(c2ccc(F)cc2)S(=O)(=O)c2ccccc2)cc1`, the displacement worked out at 2.8%.
To `COc1cc(C2=N/C(=C\N(C)C)C(=O)O2)cc(OC)c1OC` belongs 9.2%.
`CS(=O)(=O)NCCNc1cc(Cl)ccc1[N+](=O)[O-]`: the displacement is 9.6%.
Regarding `C/C(=N/N)c1ccc(-c2ccccc2)cc1`, the displacement is 14.9%.
Regarding `COc1ccc(NC(=O)c2sc3nccc(=O)n3c2C(=O)O)cc1`, the displacement came out at 3.9%.
Turning to `COc1cccc(Oc2nc(N)[nH]c(=O)c2I)c1`, the displacement was -55.6%.
For `O=C(CN(c1ccccc1)S(=O)(=O)c1ccccc1[N+](=O)[O-])Nc1ccc(Cl)cc1`, the displacement worked out at 4.6%.
In the case of `O=C(NC(=O)c1ccc2ccccc2n1)NC(c1ccccc1)c1ccccc1`, the displacement amounted to 4.4%.
The result for `Cc1sc(NC(=O)c2ccco2)c(C#N)c1C` reads 8.5%; that for `Cc1c(-c2nc(-c3ccncc3)no2)cccc1[N+](=O)[O-]`, 0.7%; that for `CC1=C(C(=O)OC2CCCCC2)C(c2cccnc2)C2=C(CCCC2=O)N1` (configuration not stated), -1.5%.
For `COC(=O)c1cc(-c2ccc(Cl)s2)nc2ccccc12`, the displacement amounted to 2.8%.
`Cc1c(NC(=O)CCCN2C(=O)c3cccc4cccc(c34)C2=O)c(=O)n(-c2ccccc2)n1C`: the displacement amounted to 10.4%.
Regarding `COC(=O)c1cc(Cl)c(NC(=O)c2ccco2)cc1OC`, the displacement was -1.2%.
As for `COc1ccc(OCC(=O)NS(=O)(=O)c2ccccc2)cc1`, the displacement is 3.9%.
To `CCOc1ccc(C(=O)N2CCc3ccccc3C2)cc1OCC` belongs 9.8%; to `O=C1CC(N(Cc2ccccc2)Cc2ccccc2)C(=O)N1c1ccc(Cl)cc1` (configuration not stated), 11.8%.
To `CCOc1cccc(-c2cc(C(=O)N3CC(C)CC(C)C3)c3ccccc3n2)c1` (configuration not stated) belongs -16%; to `O=C(CSc1cc(Cl)ccc1Cl)Nc1cccc(C(F)(F)F)c1`, 17.4%; to `COc1cccc(-n2c(/C=C/c3cn(C)c4ccccc34)nc3ccccc3c2=O)c1`, 22.6%.
`COC1=CC(CC(=O)c2ccc(OC)c(OC)c2)C(C(=O)c2ccccc2Cl)C=C1OC` (configuration not stated): the displacement was determined as 1.8%.
For `COc1ccc(Br)cc1C(=O)Nc1ccc(C(C)=O)cc1`, the displacement is 7.5%.
The result for `COc1ccc(N(CC(=O)NCc2ccccc2)S(=O)(=O)c2ccc(C)cc2)c(OC)c1` reads 10.4%; that for `CCOC(=O)C1=C(N)OC2=C(C(=O)CC(c3ccccc3Cl)C2)C1c1ccccc1Cl` (configuration not stated), -7.4%; that for `O=C(Nc1c(-c2cccs2)nc2ccccn12)c1ccc(Cl)cc1`, 7.8%.
The result for `O=C(Nc1ccc(S(=O)(=O)N2CCCCC2)cc1)c1ccc(F)cc1` reads 5.1%; that for `Cc1cccc(OCC(=O)Nc2ccc3c(c2)OCO3)c1C`, 9.6%; that for `COc1ccc(OC)c(NC2=C(Cl)C(=O)N(c3ccc(Br)cc3)C2=O)c1`, -5.1%.
The result for `CCOC(=O)c1c(NC(=O)Nc2ccccc2)sc2c1CCCCCC2` reads -6.8%; that for `O=C(c1ccc(-c2ccc([N+](=O)[O-])cc2)o1)N1CCOCC1`, 6.7%; that for `NS(=O)(=O)c1ccc(-c2ccc(/C=C3\SC(=S)N(CCc4ccccc4)C3=O)o2)cc1`, 9.1%.
For `O=C(CSc1nsc(SCC(=O)Nc2nc(-c3ccccc3)cs2)n1)Nc1nc(-c2ccccc2)cs1`, the displacement was determined as 7.1%.
To `COc1ccc(C(=O)NCCC(c2ccccc2)c2ccccc2)cc1OC` belongs -10.6%; to `COC(=O)C1=C(C(=O)OC)SC(=C2C(=S)C(C)(C)N(C(=O)c3ccccc3)c3cc(OC)ccc32)S1`, 5%.
To `CCOc1ccc(C(=S)N2CCOCC2)cc1` belongs -10.9%; to `COc1ccc(N2C(=O)NC(=O)/C(=C\c3ccc(-c4ccccc4C(=O)O)o3)C2=O)cc1`, -88.8%.
On to `c1ccc2cc3[nH]c(CN4CCCCC4)nc3cc2c1`, for which the displacement was determined as 9%.
To `Cc1cccc(NC(=O)c2cc(Cl)ccc2[N+](=O)[O-])c1` belongs 5%.
To `COc1cc(NC(=O)COc2ccc(Cl)cc2Cl)ccc1NC(=O)c1ccco1` belongs -17.2%; to `CCCOc1ccc(-c2ccc(-c3nc(-c4cc(OC)c(OC)c(OC)c4)no3)cc2)cc1`, -12.2%.
For `CC1(C)Cc2ccccc2/C(=C/C(=O)Nc2ccc([N+](=O)[O-])cc2)N1`, the displacement came out at 1.4%.
To `COC(=O)CN1C(c2cc(OC)c(OC)c(OC)c2)Nc2ccc(C)cc2C1c1ccccc1` (configuration not stated) belongs 17.6%; to `Cc1c(C(=O)Oc2ccc(Cl)cc2)cccc1[N+](=O)[O-]`, 12.3%.
On to `Cc1ccc(OCC(=O)N2CCN(c3ccc([N+](=O)[O-])cc3)CC2)cc1C`, for which the displacement is 12.4%.
To `Cc1cc2c(cc1C)NC(c1c(F)cccc1F)C1=C(CC(C)(C)CC1=O)N2` (configuration not stated) belongs 10.3%; to `COc1ccc(CCNC(=O)c2ccc(I)cc2)cc1`, -10.7%.
For the compound `Cn1c(=O)cc(Nc2ccc(Cl)cc2)[nH]c1=O`, the displacement is -1.1%.
Take `NC1=NC(=O)CC(C(=O)Nc2cccc([N+](=O)[O-])c2)S1` (configuration not stated): the displacement was found to be 0.3%.
As for `O=CNC(NC(=S)Nc1cc(Cl)ccc1Cl)C(Cl)(Cl)Cl` (configuration not stated), the displacement was -13.9%.
As to `CCOC(=O)c1c[nH]c2c(Cl)cc(Cl)cc2c1=O`, the displacement was -2.7%.
Take `Cc1cccc(N2C(=O)C(=O)/C(=C(\O)c3ccccc3)C2c2ccccc2F)c1` (configuration not stated): the displacement is 4.4%.
For `O=c1[nH]c(=S)n(-c2ccccc2)c(O)c1/C=C1\C=Nc2ccccc21`, the displacement came out at 7.9%.
To `Fc1ccc(-c2ccc(/C=N/n3cnnc3)o2)cc1` belongs 7.8%.
The result for `COc1ccc(NC(=O)c2cc3cc(Br)ccc3oc2=O)c(OC)c1` reads -4.7%; that for `O=C(Cc1ccccc1)NC1(Cc2ccc(O)cc2)CCCCC1`, -3.3%; that for `O=S1(=O)CCC(Nc2ccccc2)C1` (configuration not stated), 0.9%.
To `O=C(Nc1ccccc1)C1C(c2ccccc2)=C1c1ccccc1` belongs 0%; to `O=C(CN1C(=O)/C(=C/c2ccccc2Cl)SC1=S)N1CCOCC1`, -6.4%; to `Nc1nnc(SCC(=O)Nc2ccc(Cl)c(Cl)c2)s1`, 1.8%.
Consider `O=C(c1cccs1)N1CCN(Cc2ccc(Cl)cc2)CC1`, for which the displacement was -14.9%.
To `CCOc1ccccc1C(=O)NCCc1nc2ccccc2[nH]1` belongs 4.7%.
To `O=C1NC(=S)N(c2ccccc2)C(=O)/C1=C/c1ccc(OCc2ccc(Cl)cc2)cc1` belongs 6.1%; to `COc1cccc(NS(=O)(=O)c2ccc(OC)c(Br)c2)c1`, -4.6%; to `Cn1cccc1CN1CCN(C(=O)c2ccccc2F)CC1`, -5.4%.
As for `CC(C)CC(NC(=O)OC(C)(C)C)C(=O)O` (configuration not stated), the displacement is -2.3%.
On to `Cn1nnnc1SCC(=O)Nc1ccc2c(c1)oc1ccccc12`, for which the displacement amounted to 87%.
To `CCOC(=O)c1cc(C2CC2)nc2ccccc12` belongs -5.3%; to `COc1ccc(NC(=O)Cc2ccc(Br)cc2)c([N+](=O)[O-])c1`, -2.5%; to `CC(=O)c1ccc(NC(=O)CSc2nc3ccc([N+](=O)[O-])cc3s2)cc1`, 9.4%.
Take `O=C(/C=C/c1ccccc1F)c1c(-c2ccccc2)c2cc(Br)ccc2[nH]c1=O`: the displacement came to 6.3%.
For the compound `CN(C)Cn1c(O)c(N=NC(=O)c2ccncc2)c2ccccc21`, the displacement is -3%.
To `CCOC(=O)c1nc2nc(-c3cccs3)cc(C(F)(F)F)n2n1` belongs 16.4%.
Take `CC(O)c1nc2ccccc2n1Cc1ccccc1` (configuration not stated): the displacement is -0.5%.
`NC(=O)c1cc(NC(=O)c2ccc(Cl)c(Cl)c2)ccc1Cl`: the displacement was found to be 19.9%.
The result for `O=C(O)CN1C(=O)C2CC=CCC2C1=O` (configuration not stated) reads -3.5%; that for `Brc1ccc(-c2nc(-c3ccccc3)nc(-c3ccccc3)n2)cc1`, 2.5%; that for `C=CCc1ccc(OC(=O)NC2CCCCC2)c(OC)c1`, 7.5%.
On to `O=C(NCc1ccc2c(c1)OCO2)c1ccc(C#Cc2ccccc2)cc1`, for which the displacement was -1%.
With `CCOC(=O)c1ccc(NS(=O)(=O)c2ccc(C)c([N+](=O)[O-])c2)cc1`, the displacement turned out to be 12.5%.
Consider `Cc1ccc2[nH]c(C(=O)N/N=C/c3ccc4c(c3)OCO4)c(-c3ccccc3)c2c1`, for which the displacement was -13.9%.
The result for `Cc1ccc(-c2csc(NC(=O)C3CC=CCC3C(=O)O)n2)cc1` (configuration not stated) reads 1.8%; that for `O=C(/C=C/c1ccc(Cl)cc1)Nc1ccc(I)cc1Cl`, 6.8%.
The result for `CC(C)COc1ccc(C(=O)Nc2ccc(N3CCOCC3)c(Cl)c2)cc1` reads 14.4%.
As to `CC(C)CCOC(=O)c1n[nH]c([N+](=O)[O-])c1[N+](=O)[O-]`, the displacement was -8.5%.
Consider `O=C1c2ccc(S(=O)(=O)c3ccc4c(c3)C(=O)N(c3nccs3)C4=O)cc2C(=O)N1c1nccs1`, for which the displacement was determined as 4.6%.
To `COc1c(F)c(F)c(-c2c(F)c(F)c(OC)c(F)c2F)c(F)c1F` belongs 11.2%.
Take `COc1ccc(NC(=O)C(=O)NCCO)cc1Cl`: the displacement stood at 4.9%.
To `COc1ccc(/C=C2/SC(=O)N(CC(=O)Nc3ccc(C)c(C)c3)C2=O)cc1OC` belongs 67%; to `COc1ccc(S(=O)(=O)N(CC(=O)NCC2CCCO2)Cc2ccccc2)cc1` (configuration not stated), 13.6%.
On to `Cc1ccc(NC(=O)c2c(-c3ccccc3)noc2C)cc1Cl`, for which the displacement was -1.5%.
Take `OC(C#CC12CC3CC(CC(C3)C1)C2)c1cccnc1` (configuration not stated): the displacement is -10.7%.
To `c1ccc(NCc2ccc3c(c2)OCO3)cc1` belongs 6.8%.
For the compound `CCCCCCOc1ccc(N2C(=O)CC(NCCc3ccc(OC)c(OC)c3)C2=O)cc1` (configuration not stated), the displacement was -11.9%.
To `COC(=O)Cn1cc(/C=C2\C(=O)NC(=O)N(c3cccc(F)c3)C2=O)c2ccccc21` belongs 35.8%; to `COC(=O)c1c(-c2ccccc2)csc1NC(=O)CCCC(=O)O`, 7.6%.
Regarding `CCOC(=O)C1=C(C)N(C)C(=O)NC1c1ccc(Cl)c(Cl)c1` (configuration not stated), the displacement was 7.8%.
To `COc1cc(/C=N\Nc2nnc(C)c(=O)[nH]2)cc(Br)c1O` belongs -5.2%.
